# From the supplement of paper PMC8728848
# This is one part of the list.
# B1: Cp ZmpB (Clostridium perfringens), Q0TR08 (protein)
# chain: MNKRKIAAIILATMITNLSATTIDVLAQELNTKNNSKVEVSHDDESHQARVSKFDLYNSDKLDAYNQEFQVSRSNIKSINNNGGKYNSSTIDKAIDGNLETHWETGKPNDANFTNEVVVTFNEITNIDRIVYSARRDSARGKGFAKEFEIYASLKDEGDDFNLVSSGEYTESTRDLVEIKFNPTDFKRLKFKFKKADQNWASAAEFMFYKEDKLNEKFNGLFTDSSMNKVSEEFNTLEKLNAFENELKDHPIYDLYKEGLNNARAILTETSENPTKATLGQITYNLNDDYNNQYRMPYKNIKAIKNNGRHYAAQNIEKAIDNDVNTYWETGTLNSSSFNNEVEVEFNDLVTLDRIVYGSRQSDLKGFAEEVYIYASRTSKGDTYKLVATGAHEATKGLVEAKFEPTEFKRVKFKFKKSKQNSATLNELMFYKPDEVYSSIPKLFTDGTMSELSEEFNSLEKINAFKEKAKNHPLYNDFNETIELAESLISNPRKEDVLELEMRGDSISEAKKRKVWNFQDWQITGLSARAGDKITVYVDVAEGDPTPTLLYKQSLTQHGGATSFQLKPGKNEITIPEINYESNGIPKDVIQGGDLFFTNYKSDSQKRAPKVRIEGASKYPVFILGKSDENEVMKELEAYVEKIKAEPKTTPNIFAVSSNKSLEFVQATYALDWYKKNNKTPKYTAEQWDQYIADAMGFWGFDNSKDVNSDFNFRIMPMVKNLSGGAFMNAGNGVIGIRPGNQDAILAANKGWGVAHELGHNFDTGGRTIVEVTNNMMPLFFESKYKTKTRITDQNIWENNTYPKVGLDDYSNNELYNKADSTHLAQLAPLWQLYLYDNTFYGKFERQFRERDFGNKNREDIYKSWVVAASDAMELDLTEFFARHGIRVDDKVKEDLAKYPKPDKKIYYLNDLAMNYKGDGFTENAKVSVSTSGSNGNIKLSFSVDDENKDNILGYEIRRDGKYVGFTSNDSFVDTKSNLDEDGVYVVTPYDRKLNTLNPIEVNALQPTLSVNPVITLALGEEFNEEEYIVAKDIKGNSLSESVKVKSSNVNTSKVGEYEVLYSLEDSKGNEYTKTSKVNVVSRKEYMSDLTPKQSSNGWGTVRKDKSISGGVIGLTRDGDFVDYNKGLGLHSNAEYVYDLEGKDYDYFESYVGVDKAMSSRPASSVIFKVLVDGEEKFNSGVMRSTTPQKYVKVDVKNAKELKLIVNDAGDGDSSDHASFGDAKLATLSSKPIIKGENLAYSMDEKVDLMKGITATDIEDGNITSKVQIKSSDFVEGKSGIFTVVYSVTDSDGLTSECSRTIAVTDKETQLSDLNWKSATIGSGSVRKDRAVSGNQIRLLNEDNSVETFAKGIGTHSYSEIVYNSEGYDIFDTWVGIDRHVADKKVSSVKFKVYVDGELKAETDVMRIDTPKKRLVVDVRNSKEIKLVVDVADNGNNWDHADWADAKFRNLAEYDASELNKAIEEAKKLDLNNYTEESSEALKNAISKGEEALLSKDKETINSALEELNKEMNSLVKVDLNAVINIPDKYLLKSIQNQLNKTGDITLGDMYSLTTLTLSGVEDLTGLENAKNLETLNMDYNEVKDLRPLSKLKKLNTLNAQEQFIAAGELKPSNGKVIGDSKVYNREGKNVAKTIRVVDKNGNTILEQDAKDEFTINTKDLSSGLYGVHVLFEDEGFSGVMFYLFNV
# Columns and labels:
# Experiment in all cases: glycan array binding signal (z-score within array); higher = stronger binding
# Settings in all cases: glycan notation: IUPAC condensed, linker removed
# [1] = biological target: Neu5Ac(a2-3)Gal(b1-4)GlcNAc(b1-3)Gal(b1-4)GlcNAc(b1-2)Man(a1-3)[Neu5Ac(a2-3)Gal(b1-4)GlcNAc(b1-3)Gal(b1-4)GlcNAc(b1-2)Man(a1-6)]Man(b1-4)GlcNAc(b1-4)GlcNAc
# Summary of the method: (§1)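 The Consortium for Functional Glycomics database supplied 3228 glycan arrays, of which those lacking an available protein sequence were dropped. The binding signal, a within-array Z-score, was averaged across arrays of the same protein sequence and across linkers. Negative scores can be read as non-binding.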
# [2] = biological target: Neu5Ac(a2-3)Gal(b1-4)GlcNAc(b1-3)Gal(b1-4)GlcNAc(b1-3)Gal(b1-4)GlcNAc
# Summary of the method: as §1
# [3] = biological target: Neu5Ac(a2-3)Gal(b1-4)GlcNAc(b1-3)Gal(b1-4)GlcNAc(b1-3)Gal(b1-4)GlcNAc(b1-2)Man(a1-3)[Neu5Ac(a2-3)Gal(b1-4)GlcNAc(b1-3)Gal(b1-4)GlcNAc(b1-3)Gal(b1-4)GlcNAc(b1-2)Man(a1-6)]GalNAc
# Summary of the method: as §1
# [4] = biological target: Neu5Ac(a2-3)Gal(b1-4)GlcNAc(b1-3)Gal(b1-4)GlcNAc(b1-3)GalNAc
# Summary of the method: as §1
# [5] = biological target: Neu5Ac(a2-3)Gal(b1-4)GlcNAc(b1-3)Gal(b1-4)GlcNAc(b1-3)[Neu5Ac(a2-3)Gal(b1-4)GlcNAc(b1-3)Gal(b1-4)GlcNAc(b1-6)]GalNAc
# Summary of the method: as §1
# [6] = biological target: Neu5Ac(a2-3)Gal(b1-4)GlcNAc(b1-3)Gal(b1-4)GlcNAc(b1-6)[Gal(b1-3)]GalNAc
# Summary of the method: as §1
# [7] = biological target: Neu5Ac(a2-3)Gal(b1-4)GlcNAc(b1-3)Gal(b1-4)[Fuc(a1-3)]GlcNAc
# Summary of the method: as §1
# [8] = biological target: Neu5Ac(a2-3)Gal(b1-4)GlcNAc(b1-3)GalNAc
# Summary of the method: as §1
# [9] = biological target: Neu5Ac(a2-3)Gal(b1-4)GlcNAc(b1-3)[Neu5Ac(a2-3)Gal(b1-4)GlcNAc(b1-6)]GalNAc
# Summary of the method: as §1
# [10] = biological target: Neu5Ac(a2-3)Gal(b1-4)GlcNAc(b1-6)GalNAc
# Summary of the method: as §1
# [11] = biological target: Neu5Ac(a2-3)Gal(b1-4)GlcNAc(b1-6)[Gal(b1-3)]GalNAc
# Summary of the method: as §1
# [12] = biological target: Neu5Ac(a2-3)Gal(b1-4)GlcNAc(b1-6)[Neu5Ac(a2-3)Gal(b1-3)]GalNAc
# Summary of the method: as §1
# [13] = biological target: Neu5Ac(a2-3)Gal(b1-4)GlcNAc6S
# Summary of the method: as §1
# [14] = biological target: Neu5Ac(a2-3)Gal(b1-4)[Fuc(a1-3)]GlcNAc
# Summary of the method: as §1
# [15] = biological target: Neu5Ac(a2-3)Gal(b1-4)[Fuc(a1-3)]GlcNAc(b1-2)Man
# Summary of the method: as §1
# [16] = biological target: Neu5Ac(a2-3)Gal(b1-4)[Fuc(a1-3)]GlcNAc(b1-3)Gal
# Summary of the method: as §1
# [17] = biological target: Neu5Ac(a2-3)Gal(b1-4)[Fuc(a1-3)]GlcNAc(b1-3)Gal(b1-4)GlcNAc
# Summary of the method: as §1
# [18] = biological target: Neu5Ac(a2-3)Gal(b1-4)[Fuc(a1-3)]GlcNAc(b1-3)Gal(b1-4)[Fuc(a1-3)]GlcNAc(b1-3)Gal(b1-4)[Fuc(a1-3)]GlcNAc
# Summary of the method: as §1
# [19] = biological target: Neu5Ac(a2-3)Gal(b1-4)[Fuc(a1-3)]GlcNAc(b1-3)GalNAc
# Summary of the method: as §1
# [20] = biological target: Neu5Ac(a2-3)Gal(b1-4)[Fuc(a1-3)]GlcNAc(b1-6)[Gal(b1-3)]GalNAc
# Summary of the method: as §1
# [21] = biological target: Neu5Ac(a2-3)Gal(b1-4)[Fuc(a1-3)]GlcNAc(b1-6)[Neu5Ac(a2-3)Gal(b1-3)]GalNAc
# Summary of the method: as §1
# [22] = biological target: Neu5Ac(a2-3)Gal(b1-4)[Fuc(a1-3)]GlcNAc6S
# Summary of the method: as §1
# [23] = biological target: Neu5Ac(a2-3)Gal6S(b1-4)GlcNAc
# Summary of the method: as §1
binder,measurement,setting,value
B1,glycan array binding signal (z-score),[1],-0.223
same,glycan array binding signal (z-score),[2],-0.056
same,glycan array binding signal (z-score),[3],0.177
same,glycan array binding signal (z-score),[4],0.121
same,glycan array binding signal (z-score),[5],-0.003
same,glycan array binding signal (z-score),[6],-0.272
same,glycan array binding signal (z-score),[7],-0.07
same,glycan array binding signal (z-score),[8],-0.142
same,glycan array binding signal (z-score),[9],-0.029
same,glycan array binding signal (z-score),[10],-0.358
same,glycan array binding signal (z-score),[11],1.22
same,glycan array binding signal (z-score),[12],0.002
same,glycan array binding signal (z-score),[13],-0.316
same,glycan array binding signal (z-score),[14],0.096
same,glycan array binding signal (z-score),[15],0.027
same,glycan array binding signal (z-score),[16],-0.322
same,glycan array binding signal (z-score),[17],-0.084
same,glycan array binding signal (z-score),[18],-0.268
same,glycan array binding signal (z-score),[19],0.48
same,glycan array binding signal (z-score),[20],0.648
same,glycan array binding signal (z-score),[21],-0.172
same,glycan array binding signal (z-score),[22],0.72
same,glycan array binding signal (z-score),[23],0.218
